# Source: PubChem BioAssay (Tox21)
# Values joined by “and” are separate entries in the source; they are usually repeats but may differ in a detail not shown here. Identical values can stand only once. The inconclusive results got no clear call from the source; some entries with a clear call stand among them for comparison. For some assays here: Where the call is inconclusive, the potency comes from a doubtful curve fit. Active and inactive are the calls of the source. Unless noted, the call rests on the fitted dose curve; in most records, active means well fitted curve in the direction sought with a large enough effect in the repeat runs; inconclusive means weak or mixed curves; inactive means no such curve, though single readings can be large; an effect the other way counts as inactive or inconclusive.
# Legend:
# [1] = qHTS assay for identifying genotoxic compounds that show differential cytotoxicity against isogenic chicken DT40 cell lines with known DNA damage response pathways - wild type cell line (AID 743012); details: DT40 wild type chicken cells viability, CellTiter-Glo, 40 h; activity change, negative = cytotoxicity: at 68.4 µM (top of the series) unless noted; further: nearly all actives have a fitted effect of over 60% in size; further: potency means the concentration at half of the fitted maximal effect; on activity change, negative = cytotoxicity: on the % scale 0 is the no-effect control and ±100 the full control effect
# Outline: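 300 wt DT40 cells/well; cpd (DMSO) pintool-transferred after ~0.5 h at 37 C/5% CO2; 40 h incubation; CellTiter-Glo added, 30 min RT; luminescence read.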
# [2] = qHTS assay for identifying genotoxic compounds that show differential cytotoxicity against isogenic chicken DT40 cell lines with known DNA damage response pathways - Rad54/Ku70 mutant cell line (AID 743015); details: DT40 Rad54/Ku70 mutant viability, CellTiter-Glo, 40 h; activity change, negative = cytotoxicity: at 66.8 µM (top of the series); further: nearly all actives have a fitted effect of over 60% in size; further: potency means the concentration at half of the fitted maximal effect; on activity change, negative = cytotoxicity: on the % scale 0 is the no-effect control and ±100 the full control effect
# [3] = qHTS assay to identify small molecule antagonists of the thyroid receptor (TR) signaling pathway (AID 743065); further: nearly all actives have a fitted effect of over 55% in size; further: potency means the concentration at half of the fitted maximal effect
# Outline: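 Antagonism measured as loss of luciferase signal in GH3 cells stably carrying a TRE-luciferase reporter, co-treated with compound and T3 (1 nM final) for 23.5 h at 37 C. Viability was read in the same well by CellTiter-Fluor.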
# [4] = qHTS assay to identify small molecule antagonists of the estrogen receptor alpha (ER-alpha) signaling pathway using the BG1 cell line - cell viability counter screen (AID 743081);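 further: compound given together with 17beta-estradiol as the ER stimulus; potency means the concentration at half of the fitted maximal effect; nearly all actives have a fitted effect of over 45% in size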
# [5] = qHTS assay to identify aromatase inhibitors - cell viability counter screen (AID 743084); details: MCF-7 aro ERE viability, CellTiter-Fluor, 24 h; activity change, negative = cytotoxicity: at 70.3 µM (top of the series);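 further: cells stimulated with testosterone during compound exposure; nearly all actives have a fitted effect of over 55% in size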; further: potency means the concentration at half of the fitted maximal effect
# [6] = biological target: Estrogen receptor (Homo sapiens) (UniProt P03372); assay: qHTS assay to identify small molecule antagonists of the estrogen receptor alpha (ER-alpha) signaling pathway (AID 743069; active means well fitted curve in the direction sought with a large enough effect in the signal ratio in the repeat runs, not every such curve was filed as active; inconclusive means weak or mixed curves, or effect the other way; inactive means no such curve, though single readings can be large or run the other way; the % refers to the signal ratio; further: potency means the concentration at half of the fitted maximal effect); details: HEK293 ER-alpha-UAS-bla, beta-lactamase ratio, antagonist mode; activity, negative = inhibition: at 69.4 µM (top of the series) unless noted
# Sequence of UniProt P03372 (P03372 whole entry, looked up): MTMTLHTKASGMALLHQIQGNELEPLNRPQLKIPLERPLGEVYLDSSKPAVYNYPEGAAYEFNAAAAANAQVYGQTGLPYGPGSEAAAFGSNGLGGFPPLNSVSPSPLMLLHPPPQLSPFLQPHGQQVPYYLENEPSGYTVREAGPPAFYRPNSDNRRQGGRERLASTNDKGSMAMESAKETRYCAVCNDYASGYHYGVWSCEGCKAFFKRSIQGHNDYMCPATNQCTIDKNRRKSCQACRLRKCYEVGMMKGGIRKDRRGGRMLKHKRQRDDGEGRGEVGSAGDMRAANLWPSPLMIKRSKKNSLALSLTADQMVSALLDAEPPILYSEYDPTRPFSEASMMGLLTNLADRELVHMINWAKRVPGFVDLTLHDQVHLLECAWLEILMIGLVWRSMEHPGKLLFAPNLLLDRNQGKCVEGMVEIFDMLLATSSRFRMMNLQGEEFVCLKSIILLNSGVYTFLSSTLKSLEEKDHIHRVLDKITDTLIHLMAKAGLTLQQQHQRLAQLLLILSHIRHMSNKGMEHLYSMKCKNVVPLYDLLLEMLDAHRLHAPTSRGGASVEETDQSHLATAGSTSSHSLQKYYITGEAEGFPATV
# Outline: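 Fluorescence intensity from a beta-lactamase FRET substrate served as the read-out. Cells: HEK293 with stably integrated ER-alpha-UAS-bla reporter. Agonist 17beta-estradiol was co-added with compounds; incubation 18 hr at 37C, substrate 2 hr at room temperature.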
# [7] = qHTS assay to identify small molecule antagonists of the androgen receptor (AR) signaling pathway - cell viability counter screen (AID 743033; further: nearly all actives have a fitted effect of over 45% in size; further: potency means the concentration at half of the fitted maximal effect); details: AR-bla HEK293 viability, CellTiter-Glo luminescence, 16 h; activity change, negative = cytotoxicity: at 58.5 µM (top of the series)
# [8] = qHTS assay to identify small molecule antagonists of the thyroid receptor (TR) signaling pathway - cell viability counter screen (AID 743064); details: GH3.TRE-Luc viability, CellTiter-Fluor, 24 h; activity change, negative = cytotoxic: at 70.3 µM (top of the series) unless noted; further: nearly all actives have a fitted effect of over 50% in size; further: potency means the concentration at half of the fitted maximal effect
# Outline: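 Same-well viability check: GH3.TRE-Luc cells stimulated with 1 nM T3 alongside test compound for 23.5 h, followed by CellTiter-Fluor fluorescence.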
# [9] = tested on: thyroid hormone receptor (rat, GH3 cells); assay: qHTS assay to identify small molecule agonists of the thyroid receptor (TR) signaling pathway (AID 743066; calls by dose curve; further: on the % scale 0 is the no-effect control and ±100 the full control effect); details: GH3.TRE-Luc cells, TR agonist luciferase, 24 h; activation: at 83.9 µM (top of the series) unless noted
# [10] = qHTS assay to identify small molecule antagonists of the estrogen receptor alpha (ER-alpha) signaling pathway - cell viability counter screen (AID 743074; calls by dose curve; further: nearly all actives have a fitted effect of over 45% in size; further: potency means the concentration at half of the fitted maximal effect)
# [11] = biological target: Estrogen receptor (Homo sapiens) (UniProt P03372); assay: qHTS assay to identify small molecule agonists of the estrogen receptor alpha (ER-alpha) signaling pathway using the BG1 cell line (AID 743079); details: BG1Luc4E2 cells, ERE-luciferase agonist, 22 h; activation: at 70.3 µM (top of the series) unless noted; further: nearly all actives have a fitted effect of over 20% in size; further: potency means the concentration at half of the fitted maximal effect
# [12] = qHTS assay to identify small molecule antagonists of the estrogen receptor alpha (ER-alpha) signaling pathway using the BG1 cell line (AID 743080; calls by dose curve;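 further: BG1 cells stimulated with 17beta-estradiol alongside compound; nearly all actives have a fitted effect of over 25% in size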; further: potency means the concentration at half of the fitted maximal effect); details: BG1Luc4E2 ERE-luciferase antagonist mode, luminescence; activity change, negative = inhibition: at 70.3 µM (top of the series) unless noted
# Outline: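 Quantitative HTS on the Tox21 10K library: BG1 cells with endogenous ER-alpha and ERE-luciferase reporter, 17beta-estradiol stimulation, 21.5 h compound exposure, luminescence endpoint with parallel fluorescence cytotoxicity counter-read.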
# [13] = biological target: Estrogen receptor (Homo sapiens) (UniProt P03372); assay: qHTS assay to identify small molecule agonists of the estrogen receptor alpha (ER-alpha) signaling pathway (AID 743075; calls by dose curve; further: potency means the concentration at half of the fitted maximal effect)
# [14] = biological target: Androgen receptor (Homo sapiens) (UniProt P10275); assay: qHTS assay to identify small molecule antagonists of the androgen receptor (AR) signaling pathway using the MDA cell line (AID 743042; further: nearly all actives have a fitted effect of over 55% in size; further: potency means the concentration at half of the fitted maximal effect)
# Sequence of UniProt P10275 (P10275 whole entry, looked up): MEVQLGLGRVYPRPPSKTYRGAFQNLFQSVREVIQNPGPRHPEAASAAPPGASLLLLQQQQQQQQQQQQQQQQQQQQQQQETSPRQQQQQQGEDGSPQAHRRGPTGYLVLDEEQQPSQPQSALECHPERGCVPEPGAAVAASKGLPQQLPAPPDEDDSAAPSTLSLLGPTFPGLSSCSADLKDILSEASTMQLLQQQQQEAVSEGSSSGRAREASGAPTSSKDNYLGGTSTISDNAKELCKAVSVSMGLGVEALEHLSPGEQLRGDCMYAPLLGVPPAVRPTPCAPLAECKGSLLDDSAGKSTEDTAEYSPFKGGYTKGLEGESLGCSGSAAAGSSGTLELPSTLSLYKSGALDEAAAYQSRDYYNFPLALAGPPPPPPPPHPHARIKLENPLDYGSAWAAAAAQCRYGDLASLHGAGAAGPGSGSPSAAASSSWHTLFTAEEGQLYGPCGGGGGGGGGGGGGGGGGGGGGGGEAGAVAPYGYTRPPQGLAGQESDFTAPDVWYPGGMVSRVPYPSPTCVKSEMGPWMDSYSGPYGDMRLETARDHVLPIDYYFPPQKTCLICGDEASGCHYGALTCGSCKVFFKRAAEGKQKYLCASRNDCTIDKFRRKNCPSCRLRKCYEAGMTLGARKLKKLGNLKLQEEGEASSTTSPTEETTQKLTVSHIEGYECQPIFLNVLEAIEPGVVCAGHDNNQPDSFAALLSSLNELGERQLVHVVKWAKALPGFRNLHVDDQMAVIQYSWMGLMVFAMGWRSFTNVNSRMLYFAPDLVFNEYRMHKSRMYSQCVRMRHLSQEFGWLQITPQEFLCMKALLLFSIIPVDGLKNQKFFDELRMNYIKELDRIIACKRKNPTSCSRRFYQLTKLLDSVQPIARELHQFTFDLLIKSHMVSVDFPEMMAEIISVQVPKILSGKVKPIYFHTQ
# Outline: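 Antagonist mode: compounds plus R1881 agonist added to MDA-kb2 AR-luc cells, incubated 16 h at 37C. Luciferase reporter luminescence quantified, with multiplexed CellTiter-Fluor readout for cell viability.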
# [15] = biological target: Androgen receptor (Homo sapiens) (UniProt P10275); assay: qHTS assay to identify small molecule antagonists of the androgen receptor (AR) signaling pathway (AID 743035; active means well fitted inhibition curve with a large enough effect in the signal ratio in the repeat runs, not every such curve was filed as active; inconclusive means weak or mixed curves, or effect the other way; inactive means no such curve, though single readings can be large or run the other way; the % refers to the signal ratio; further: potency means the concentration at half of the fitted maximal effect); details: HEK293 AR-UAS-bla, R1881-stimulated, beta-lactamase FRET, 16 h; activity change, negative = inhibition: at 58.5 µM (top of the series) unless noted
# Outline: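 In this cell-based reporter screen, compounds were tested in concentration series against R1881-activated HEK293 cells expressing beta-lactamase under UAS control; after 16 h at 37C, FRET substrate was added and fluorescence read 2 h later.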
# [16] = biological target: Androgen receptor (Homo sapiens) (UniProt P10275); assay: qHTS assay to identify small molecule agonists of the androgen receptor (AR) signaling pathway (AID 743036; active means well fitted activation curve with a large enough effect in the signal ratio in the repeat runs, with a control signal flat, not every such curve was filed as active; inconclusive means weak or mixed curves, or effect the other way; inactive means no such curve, though single readings can be large or run the other way; the % refers to the signal ratio; further: on the % scale 0 is the no-effect control and ±100 the full control effect); details: HEK293 AR-UAS-bla GripTite, beta-lactamase FRET ratio, 16 h; activation: at 62.4 µM (top of the series) unless noted
# Outline: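 Agonist activity was scored by beta-lactamase reporter fluorescence in stably transfected HEK293 cells exposed to compounds for 16 h at 37C and 5% CO2. Substrate loading took 2 h at room temperature.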
# [17] = qHTS assay to identify small molecule antagonists of the androgen receptor (AR) signaling pathway using the MDA cell line - cell viability counter screen (AID 743041; further: potency means the concentration at half of the fitted maximal effect; nearly all actives have a fitted effect of over 45% in size); details: MDA-kb2 viability, CellTiter-Fluor, 16 h, cells co-treated with R1881 androgen agonist; viability change, negative = cytotoxic: at 70.3 µM (top of the series) unless noted
# Outline: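 Using the breast carcinoma line MDA-kb2 AR-luc, test chemicals were co-incubated with R1881 for 16 h; CellTiter-Fluor reagent, added at 15.5 h, provided a fluorescence measure of live cells.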
# Tags describe the fitted curve by direction and shape or compound fluorescence and quenching.
smiles,measurement,setting,value
Cc1cc(C)c(S(=O)(=O)O)cc1N=Nc1cc(S(=O)(=O)O)c2ccccc2c1O,Potency,[1],inactive
same,Potency,[2],"inconclusive: 13.7 µM [cytotoxic, full curve]"
same,Potency,[3],"inconclusive: 34.4 µM [inhibitor, partial curve, poor fit]"
same,Potency,[4],active: 54.5 µM
same,Potency,[5],active: 24.3 µM
O=C1c2ccccc2C(=O)C1c1nc2ccccc2c(Br)c1O,Potency,[1],"inconclusive: 15.4 µM [rising, single point]"
same,Potency,[2],inactive
same,Potency,[6],"inconclusive: 30.9 µM [activator, partial curve]"
same,Potency,[5],"inconclusive: 27.3 µM [cytotoxic, partial curve, poor fit]"
C[C@]12CC[C@@H]3c4ccc(O)cc4CC[C@H]3[C@@H]1CC[C@@H]2O,Potency,[1],"inconclusive: 68.5 µM [cytotoxic, single point]"
same,Potency,[7],"inconclusive: 38.8 µM [cytotoxic, partial curve, poor fit] and inconclusive: 27.5 µM [cytotoxic, partial curve, poor fit]"
same,Potency,[8],"inconclusive: 29.8 µM [cytotoxic, single point] and inconclusive: 43.3 µM [cytotoxic, partial curve]"
same,Potency,[3],"inconclusive: 29.8 µM [inhibitor, single point]"
same,activation,[9],inconclusive: -7.57% [phenotype inactive]
same,Potency,[10],inactive
same,Potency,[5],"inactive and inconclusive: 61 µM [cytotoxic, partial curve, poor fit]"
CN(C)C(C)(C)CO,Potency,[1],"inconclusive: 34.4 µM [rising, single point]"
same,Potency,[7],inactive
same,Potency,[8],inactive
same,Potency,[10],inactive
same,Potency,[11],active: 77 µM
CCOC(=O)CCCCCCCCC(=O)OCC,Potency,[1],"inconclusive: 54.5 µM [cytotoxic, partial curve]"
same,Potency,[2],"inconclusive: 48.6 µM [cytotoxic, partial curve, poor fit]"
same,Potency,[9],inactive
same,Potency,[11],"inconclusive: 68.6 µM [activator, partial curve, poor fit]"
O=C1CCCCC1,Potency,[1],"inconclusive: 2.87 µM [rising, partial curve]"
same,Potency,[2],inactive
same,activation,[11],inconclusive: 8.77% [phenotype inactive] [at 95 µM]
same,Potency,[12],inactive
O=C(/C=C/c1ccc([N+](=O)[O-])cc1)c1ccccc1,Potency,[1],"inconclusive: 5.46 µM [rising, partial curve, poor fit]"
same,Potency,[2],inactive
same,Potency,[13],"inconclusive: 15.5 µM [fluorescent, partial curve]"
same,Potency,[12],"inconclusive: 68.7 µM [rising, single point]"
CN[C@@H]1[C@H](O)[C@H](NC)[C@H]2O[C@@]3(O)C(=O)C[C@@H](C)O[C@H]3O[C@@H]2[C@H]1O,Potency,[1],inactive
same,Potency,[7],"inconclusive: 0.091 µM [cytotoxic, full curve, poor fit]"
same,Potency,[14],inactive
same,Potency,[4],"inconclusive: 4.52 µM [rising, partial curve]"
CCC(C)COC(=O)CC(C)C (centres undefined),Potency,[1],active: 68.6 µM
same,Potency,[7],"inconclusive: 21.9 µM [cytotoxic, partial curve, poor fit]"
same,Potency,[3],"inconclusive: 61.1 µM [inhibitor, partial curve, poor fit]"
same,Potency,[11],inactive
same,Potency,[5],inactive
NCCOCCOCCN,Potency,[1],active: 24.3 µM
same,Potency,[7],"inconclusive: 21.9 µM [cytotoxic, partial curve]"
same,"activity change, negative = inhibition",[15],inconclusive: 9.33%
same,activation,[16],inconclusive: -9.97%
same,Potency,[17],"inconclusive: 30.6 µM [cytotoxic, partial curve]"
same,Potency,[14],"inconclusive: 6.86 µM [inhibitor, full curve]"
same,Potency,[3],"inconclusive: 61.1 µM [inhibitor, single point]"
CS(=O)(=O)c1ccc([C@@H](O)[C@@H](CO)NC(=O)C(Cl)Cl)cc1,Potency,[1],active: 4.52 µM and active: 4.92 µM
same,Potency,[7],"inconclusive: 0.0882 µM [cytotoxic, full curve, poor fit]"
COC(C)=O,Potency,[1],inactive
same,Potency,[7],inactive
same,Potency,[8],inactive
same,Potency,[3],inactive
same,Potency,[13],inconclusive: 0.199 µM [single point]
same,Potency,[4],"inconclusive: 33.5 µM [rising, partial curve, poor fit]"
O=C1c2ccccc2C(=O)C1c1ccc2ccccc2n1,Potency,[1],"inconclusive: 3.03 µM [rising, single point]"
same,Potency,[2],active: 1.91 µM
same,Potency,[11],"inconclusive: 2.7 µM [activator, full curve]"
same,Potency,[12],"inconclusive: 4.81 µM [rising, single point]"
same,Potency,[4],"inconclusive: 13.6 µM [cytotoxic, partial curve, poor fit]"
CC(C)=CCC1=C(O)c2ccccc2C(=O)C1=O,Potency,[1],"inconclusive: 76.5 µM [cytotoxic, single point]"
same,Potency,[7],"inconclusive: 1.54 µM [cytotoxic, full curve]"
same,Potency,[15],"inconclusive: 17.3 µM [rising, partial curve, poor fit]"
same,activation,[16],inconclusive: -2.52%
same,Potency,[17],inconclusive: 54.2 µM [cytotoxic]
same,Potency,[8],"inconclusive: 96.3 µM [cytotoxic, partial curve, poor fit]"
same,Potency,[6],"inconclusive: 24.4 µM [rising, partial curve]"
same,Potency,[10],"inconclusive: 0.0546 µM [cytotoxic, full curve]"
same,Potency,[13],inconclusive: 48.7 µM
same,activation,[11],inconclusive: -17.8% [phenotype inactive]
same,Potency,[4],active: 54.2 µM
same,Potency,[5],"inconclusive: 54.2 µM [cytotoxic, partial curve]"
